Reference: the antibiotic and cytotoxicity screens of Wong et al. (2023)
The other results are listed elsewhere or left out.

Legend:
[1] = test system: HSkMC (human skeletal muscle cells); assay: cytotoxicity call (relative viability < 0.9); settings: 10 µM
[2] = test system: HepG2; assay: cytotoxicity call (relative viability < 0.9); settings: 10 µM
[3] = test system: S. aureus RN4220; assay: growth inhibition call (relative growth <= 0.2); settings: 50 µM

Row | SMILES | cytotoxicity call [1] | cytotoxicity call [2] | growth inhibition call [3]
1 | C[C@H]1CCCCO[C@@H](CN(C)C(=O)Nc2ccccc2)[C@@H](C)CN([C@@H](C)CO)C(=O)c2cc(NS(=O)(=O)c3cccs3)ccc2O1 | inactive | inactive | inactive
2 | C[C@@H]1CN([C@@H](C)CO)C(=O)c2cc(NC(=O)Nc3ccc(F)cc3)ccc2O[C@@H]1CN(C)Cc1ccc(C(F)(F)F)cc1 | active | active | inactive
3 | C[C@@H]1CCCCO[C@@H](CN(C)C(=O)Nc2ccccc2)[C@@H](C)CN([C@H](C)CO)C(=O)c2cc(NC(=O)Nc3ccc4c(c3)OCO4)ccc2O1 | inactive | inactive | inactive
4 | Cn1c(=O)c2c(ncn2CC(=O)N2CCN(c3ccccc3F)CC2)n(C)c1=O | inactive | inactive | inactive
5 | COc1ccc2c3c(n(c2c1)C)[C@@H](CO)N(C[C@]13CCN(CC1)C(=O)c1cnccn1)C(=O)c1cnccn1 | inactive | inactive | inactive
6 | C[C@H](C(=O)N(C)C[C@H]1OCc2ccccc2-c2c(n(C)c3ccccc23)C(=O)N([C@@H](C)CO)C[C@H]1C)c1ccccc1 | inactive | inactive | inactive
7 | COc1ccc(NC(=O)Nc2ccc3c(c2)CC(=O)N([C@@H](C)CO)C[C@H](C)[C@@H](CN(C)Cc2ccc(C(F)(F)F)cc2)O3)cc1 | inactive | inactive | inactive
8 | Cc1noc(C)c1S(=O)(=O)Nc1ccc2c(c1)C(=O)N([C@@H](C)CO)C[C@@H](C)[C@@H](CN(C)C(=O)Nc1ccc(F)cc1)OCCCC[C@@H](C)O2 | inactive | inactive | inactive
9 | COc1ccc2c3c(n(c2c1)C)[C@@H](CO)N(C[C@]13CN(C1)C(=O)c1ccncc1)C(=O)C1CCOCC1 | inactive | inactive | inactive
